# Laboratory results taken from the supplement of paper PMC12632987.
# Whole data set: some 1,800 sequences, median “median log2 fold change of GCK-ALFA target abundance (FLAG IP / Myc IP barcode read proportion)” near 0.14, cut for the lowest 2% near -0.84. The list shows a part of the results.
# T1: TRAF2, Q12933
# T1 chain: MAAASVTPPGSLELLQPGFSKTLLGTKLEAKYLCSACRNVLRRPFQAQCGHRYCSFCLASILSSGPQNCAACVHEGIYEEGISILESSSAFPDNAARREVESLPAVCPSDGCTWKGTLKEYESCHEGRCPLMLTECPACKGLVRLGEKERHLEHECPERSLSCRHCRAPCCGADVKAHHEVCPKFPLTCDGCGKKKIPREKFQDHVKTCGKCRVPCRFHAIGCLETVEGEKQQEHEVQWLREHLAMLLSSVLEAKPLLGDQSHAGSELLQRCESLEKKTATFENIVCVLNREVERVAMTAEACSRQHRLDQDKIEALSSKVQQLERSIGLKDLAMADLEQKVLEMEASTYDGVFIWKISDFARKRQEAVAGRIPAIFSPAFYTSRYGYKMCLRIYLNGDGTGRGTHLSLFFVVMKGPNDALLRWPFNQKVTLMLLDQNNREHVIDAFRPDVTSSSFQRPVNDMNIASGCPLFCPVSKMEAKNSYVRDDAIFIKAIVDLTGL
# B1: traf2_out_20_3_2246 (protein)
# chain: MELREKAEKYLEEAEKLLKEVEPLLPAERAAELRELLKKAREAFKTDLTDALVYLSELRRLALELAEEARAAGDEETARLLEELAEAVGKAANHIYKIVE
# B2: traf2_out_13_95_1059 (protein)
# chain: SAELAKKINELADEAEERILAILDEAAKKLAGDPAAVAVLEQAKDLALNKGWTEAIALLRAAAAAHPEHKADFEATIAEIEAVRRKLGREVAKLIKEEQE
# B3: traf2_out_17_178_1669 (protein)
# chain: NKEEYRKKISELTDELIDLTEETGRRLLALAEAEGRLSPEELALLRAALRSGSANTLLAVARRLAPKLSSREEAQALLDEFEKEYKELSKKIAEAYEKYE
# B4: traf2_out_11_169_818 (protein)
# chain: EEAEKNRKINDFALELNDEAKKKLLEYALKLAKEEGLDVEEVKAIFEKHKNSSLSAVAAALIDYFRSKGKEEAAKAVLEKYEELKDEINKKVTEKIKELE
# B5: traf2_out_6_166_2459 (protein)
# chain: ESETLKEIREIIKELSKYSTEIIVKAFDEVAKKVDEESARILRQLKSAVEQAEKLGLDVETALTATVLGLITLGVPEETLLKLLKEVLKEAKKIAEEKEK
# B6: traf2_out_20_154_1998 (protein)
# chain: VSDEEIEKLSDELVEYSAKRRAYEVAALALENPEKADEIWATAYEEYKNDALMMKYLDEAKAKVEAGATLEEFKKEAEEYAKKAREYGEKLEKALEERRK
# B7: traf2_out_17_162_1626 (protein)
# chain: SPLEEEIAELEERLKELEEKLKELEKKAENIEKLSKEELTDLLVEASEARREALELAERIRELRKKYNRPELDELLERAEEIAEKFQRIANLFYEELLKK
# B8: traf2_out_14_149_1240 (protein)
# chain: SHMAELFKAAAELAEKAAKALEEVLKLLKAGKVEEAKKLLKETIKYLEEEGKKHGITISIVFKLEHILELLDKDVEEAKKAAEEAAKEAKNRAEAYKSLA
# B9: traf2_out_11_169_775 (protein)
# chain: EEAEKNRKINDFALELNDEAKKKLEEFALELAEKEGLDVEEIKKIFEKNKNSSLSAVAAALIEYFESKGKEEAAKAILEKYEELKEEINKKSSAFIKSLE
# B10: traf2_out_6_3_2507 (protein)
# chain: SDEEERKRNEEAFELASEISIENLKKAADTLLKRLKELVEDPNASDSDVLAAASALTLTLEILRKSAEKNPEKKEEAEKYIKEKEKELEELLKKWKEKRK
# B11: traf2_out_20_8_2269 (protein)
# chain: MSMEEKLARAADLILDAKDLVRAVIREVLADERAPAIAAEAAAAISVSVSADDTDADILLRIRERATEALTRLAERTGDPRLEEARARVAAALDAAAAAA
# B12: traf2_out_15_48_1345 (protein)
# chain: NTEKLQEVARQIADRADATRDAVLARLEALRARADPAEQALLDELIALVRSGATLRTVLGALEAARPRLSPELAAALAALAAEIRATLRESSRLFNEAEA
# B13: traf2_out_6_156_2420 (protein)
# chain: KVEEIKKKTLEEIKELIKKLSEASEEKKISYINKIAGTVYRALQQLKALGASVEEIEAFVKEVLEFAKKEAEKAGLPEDVINLLLGSIQAVGDVAIAEAK
# B14: traf2_out_13_95_1073 (protein)
# chain: SLELAKKIMEIADEAEERIEKLLKEAQKELADNPEAVAVLKEALELARKKGVSAAIHLLREAAKANPENAAKFKALIEEIEAIRREAGREVAKLIKEEEE
# B15: traf2_out_6_156_2458 (protein)
# chain: SIEEIEEETLERLEELLEKLAEASEEEKIKYINEIAGTVYRGLQRLREAGASLEEIEAFVERVLEFVEEKAEELGIPEDTKNLLLASLRAVGDAAIESAK
# B16: traf2_out_11_155_723 (protein)
# chain: EKKREAQNKIVDKSLEIGDKLLAEVEKIIKEIAKEDPEVAKELKKVVEKYLKYSNTSAARAAIDLLKEAGYEEEAAKLEKALEEAQKEKSEFIQKVEEEL
# B17: traf2_out_17_162_1560 (protein)
# chain: SPIEEKWKELLEELERLREEVERLEEELKNIENMSLEELRDLLVRASEVRRRALELAEEAEELKEEIGEEKAQELIDEAERIAERAQRIANKLYKAILEK
# B18: traf2_out_18_3_1928 (protein)
# chain: SEEERKKVSDELDKVVDEVEEKARKAMEELEEKKPEVKERVEKLRELLESGAGPFGILEELARLAKEAGLEELAKELEAFLEKKRKEAGKLVEEYEKLIK
# B19: traf2_out_20_8_2270 (protein)
# chain: MSMEEKLARAADLILEAKDLARAVIKEVLADERAPEIAARAAAAISVSVGADDTDSDILARIRDRATEAIDALAAETGDPRLAEARDRVSAELAARAAAA
# Biological target: T1, TRAF2, Q12933
# Experiment: median log2 fold change of GCK-ALFA target abundance (FLAG IP / Myc IP barcode read proportion) (log2 ratio); each designed protein is fused to an ALFA-tag nanobody in HEK293 cells to bring the named protein to FLAG-tagged glucokinase (GCK); Myc marks an untargeted standard; higher = target protein stabilised (more abundant)
# Settings: target protein: 3xFLAG-MCP-GCK-ALFA reporter; HEK293 landing pad (RPLP)
# Procedure, shortened: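 The readout is target abundance, the per-binder median log2 ratio of FLAG to Myc barcode read proportions. It came from HEK293 landing-pad cells carrying a recombined ALFA-nanobody-fused binder library, induced with 2 μg mL^−1 doxycycline and transfected with a plasmid for a FLAG-tagged target and a Myc-tagged standard. After 48 h, lysates were immunoprecipitated with anti-FLAG and anti-Myc, and circular RNA barcodes were reverse transcribed, amplified and sequenced. Each barcode needed a proportion of at least 10^−7 in both replicates and each binder at least 3 barcodes per replicate, a pseudocount of 10^−6 was added, and the replicates were pooled.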
row,Binder,median log2 fold change
1,B1,0.251
2,B2,-0.0638
3,B3,0.0703
4,B4,0.262
5,B5,0.077
6,B6,-0.0179
7,B7,0.131
8,B8,-0.551
9,B9,0.177
10,B10,-0.0319
11,B11,0.0236
12,B12,0.234
13,B13,0.0642
14,B14,-0.447
15,B15,0.167
16,B16,0.14
17,B17,-0.341
18,B18,0.202
19,B19,0.271
